For some of these results: For at least one compound, name, drawing or mass did not settle the structure. Some entries share one result that the patent states for a list of compounds. Some compounds share one range, which may span the group rather than tell each member.
Legend:
[1] = LNP size and PDI by dynamic light scattering; assay type: physicochemical; conditions: mRNA LNP, cationic lipid/DSPC/cholesterol/PEG-lipid 50:10:38.5:1.5
Procedure: (§1) In summary, the cationic lipid described herein, DSPC, cholesterol, and PEG-lipid were dissolved in ethanol at a molar ratio of 50:10:38.5:1.5 and diluted in 10 mM to 50 mM citrate buffer at pH 4 with mRNA. Using a microfluidic device, the lipid ethanol solution was mixed with mRNA aqueous solution at a volume ratio of 1:3 and a total flow rate ranging from 6-30 mL/min, preparing LNPs with a total lipid to mRNA weight ratio of approximately 10:1 to 30:1. Ethanol was removed by dialysis and replaced with PBS. Finally, the lipid nanoparticles were filtered through a 0.22 μm sterile filter.
(§2) The size of lipid nanoparticles was measured by dynamic light scattering using a Malvern Zetasizer Nano ZS (Malvern, UK) with a 90° scattering detection mode. The encapsulation efficiency of lipid nanoparticles was determined using the Quant-it Ribogreen RNA Quantitation Kit (Thermo Fisher Scientific, UK) according to the manufacturer's instructions. The apparent pKa of LNP formulations correlates with the delivery efficiency of nucleic acids by LNPs in vivo. The apparent pKa ranges from approximately 5 to 7. An analysis based on fluorescence from 2-(p-tolylamino)-6-naphthalenesulfonic acid (TNS) was used to determine the apparent pKa of formulations. As described above, LNP formulations containing cationic lipid/DSPC/cholesterol/DMG-PEG (50/10/38.5/1.5 mol %) in PBS were prepared. A 300 μM stock solution of TNS in distilled water was prepared. LNP formulations were diluted to 0.1 mg/mL total lipid in 3 mL of buffer solution containing 50 mM sodium citrate, 50 mM sodium phosphate, 50 mM sodium borate, and 30 mM sodium chloride (pH ranged from 3 to 9). […] S-shaped curve best-fit analysis was applied to the fluorescence data, and the pKa value was measured as the pH value producing half-maximal fluorescence intensity.

[2] = LNP encapsulation efficiency (Quant-it Ribogreen); assay type: physicochemical; conditions: mRNA LNP, cationic lipid/DSPC/cholesterol/PEG-lipid 50:10:38.5:1.5
Excerpt: Encapsulation Efficiency: The encapsulation efficiency of a therapeutic and/or prophylactic agent refers to the amount of the therapeutic and/or prophylactic agent encapsulated within or otherwise associated with the nanoparticle composition relative to the initial amount provided during preparation. Encapsulation efficiency is desirably high (such as close to 100%). Encapsulation efficiency can be measured, for example, by comparing the amount of therapeutic and/or prophylactic agent in a solution containing the nanoparticle composition before and after disruption of the nanoparticle composition using one or more organic solvents or detergents. Fluorescence can be used to measure the amount of free therapeutic and/or prophylactic agent (e.g., RNA) in solution. For the nanoparticle compositions described herein, the encapsulation efficiency of the therapeutic and/or prophylactic agent may be at least 50%, such as 50%, 55%, 60%, 65%, 70%, 75%, 80%, 85%, 90%, 91%, 92%, 93%, 94%, 95%, 96%, 97%, 98%, 99%, or 100%. In some embodiments, the encapsulation efficiency may be at least 80%. In certain embodiments, the encapsulation efficiency may be at least 90%.
as §1, §2

LNP zeta potential = assay type: physicochemical; conditions: mRNA LNP
Excerpt: Nanoparticle compositions can be characterized by various methods. For example, the morphology and size distribution of nanoparticle compositions can be examined using microscopy (e.g., transmission electron microscopy or scanning electron microscopy). The zeta potential can be measured using dynamic light scattering or potentiometric titration. Dynamic light scattering can also be used to determine particle size. Instruments such as the Zetasizer Nano ZS (Malvern Instruments Ltd., Malvern, Worcestershire, UK) can also be used to measure multiple characteristics of nanoparticle compositions, such as particle size, polydispersity index, and zeta potential.
[…]: The zeta potential of the nanoparticle composition can indicate the electrophoretic potential of the composition. For example, zeta potential may describe the surface charge of the nanoparticle composition. Nanoparticle compositions with relatively low positive or negative charges are generally desirable, as materials with higher charges may interact undesirably with cells, tissues, and other components in the body. In some embodiments, the zeta potential of the nanoparticle composition may be about −10 mV to about +20 mV, about −10 mV to about +15 mV, about −10 mV to about +10 mV, about −10 mV to about +5 mV, about −10 mV to about 0 mV, about −10 mV to about −5 mV, about −5 mV to about +20 mV, about −5 mV to about +15 mV, about −5 mV to about +10 mV, about −5 mV to about +5 mV, about −5 mV to about 0 mV, about 0 mV to about +20 mV, about 0 mV to about +15 mV, about 0 mV to about +10 mV, about 0 mV to about +5 mV, about +5 mV to about +20 mV, about +5 mV to about +15 mV, or about +5 mV to about +10 mV.

BALB/c mice [3] = assay: In vivo organ imaging via tail vein injection; conditions: 0.25 mg/kg tail vein, 6 hours post-dose, FIG. 27
BALB/c mice [4] = assay: In vivo imaging via intramuscular injection; conditions: 0.25 mg/kg intramuscular, 6 hours post-dose, FIG. 26

| SMILES | PDI [1] | Size (nm) [1] [nm] | Encapsulation efficiency (%) [2] [%] | Zeta potential (mV) (LNP zeta potential) | spleen expression levels (Radiance) (BALB/c mice [3]) | Radiance, intramuscular injection (BALB/c mice [4]) | liver expression levels (Radiance) (BALB/c mice [3]) |
| --- | --- | --- | --- | --- | --- | --- | --- |
| CCCCCCCCC(C(=O)NCCCCCCCCCC(=O)OC(CCCC)CCCCCC)N(CCCN1CCCC1)C(=O)CCCCCCCCCC(=O)OC(CCCC)CCCCCC (stereo not shown) [Compound A3] | 0.202 | 81.09 | 95.23 | −2.04 |  |  |  |
| CCCCC/C=C\C/C=C\CCCCCCCCNC(=O)C(CCCCCCCC)N(CCCCCCCC/C=C\C/C=C\CCCCC)C(=O)CCCN(C)C (stereo not shown) [Compound C2] | 0.5 | 55.75 | 93.88 | 7.20 |  |  |  |
| CCCCC/C=C\C/C=C\CCCCCCCC(=O)N(CCCN1CCCC1)C(CCCCCCCCCCC)C(=O)NCCCCCCCCCCCCCC (stereo not shown) [Compound A22] | 0.176 | 84.36 | 91.06 | 11.60 |  |  |  |
| CCCCCCCCC(C(=O)NCCCCCCCCCC(=O)OCCCCCC)N(CCCN(CO)CO)C(=O)CCCCCCCCCC(=O)OC(CCCCCC)CCCCCC (stereo not shown) [Compound B1] | 0.114 | 91.81 | 94.25 | −1.26 |  |  |  |
| CCCCC/C=C\C/C=C\CCCCCCCCNC(=O)C(CCCCCCCC)N(CCCCCCCC/C=C\C/C=C\CCCCC)C(=O)CCCN1CCCC1 (stereo not shown) [Compound C4] | 0.259 | 66.98 | 96.34 | 14.67 |  |  |  |
| CCCCCCCCNC(=O)C(CCCCCCCC)N(CCN(CC)CC)C(=O)CCCCCCC(=O)OC(CCCCCCCC)CCCCCCCC (stereo not shown) [Compound A38] | 0.15 | 80.57 | 96.10 | 2.32 |  |  |  |
| CCCCCCCCCCCCCCNC(=O)C(CCCCCCCCCCC)N(CCCCN1CCCC1)C(=O)CCCCCCC(=O)OC(CCCCCCCC)CCCCCCCC (stereo not shown) [Compound A25] | 0.224 | 92.75 | 93.66 | 11.31 |  |  |  |
| CCCCCCCCC(C(=O)NCCCCCCCCCC(=O)OCC1CC=CCC1)N(CCCN1CCCC1)C(=O)CCCCCCCCCC(=O)OC(CCCCCC)CCCCCC (stereo not shown) [Compound A10] |  |  |  |  | 6×10^8-8×10^8 p/sec/cm^2/sr |  |  |
| CCCCCCCCNC(=O)C(CCCCCCCC)N(CCN(CC)CCO)C(=O)CCCCCCC(=O)OC(CCCCCCCC)CCCCCCCC (stereo not shown) [Compound B29] |  |  |  |  |  | 5×10^8-1×10^9 p/sec/cm^2/sr | 8×10^8-1×10^9 p/sec/cm^2/sr |
| CCCCCCCCNC(=O)C(CCCCCCCC)N(CCCN(C)CCCO)C(=O)CCCCCCC(=O)OC(CCCCCCCC)CCCCCCCC (stereo not shown) [Compound B27] | 0.21 | 70.04 | 81.99 | 1.50 |  |  |  |
| CCCCCCCCC(CCCCCC)COC(=O)CCCCCNC(=O)C(CCCCC)N(CCCN(C)C)C(=O)CCCCCC(=O)OCC(CCCCCCCC)CCCCCCCC (stereo not shown) [Compound A43] | 0.16 | 105.07 | 71.39 | −3.98 |  |  |  |
| CCCCCCC(CCCCCC)OC(=O)CCCCCCCCCNC(=O)CN(CCN(C)CCN(CC(=O)NCCCCCCCCCC(=O)OC(CCCCCC)CCCCCC)C(=O)CCCCCCCCCC(=O)OC(CCCCCC)CCCCCC)C(=O)CCCCCCCCCC(=O)OC(CCCCCC)CCCCCC [Compound D5] |  |  |  |  |  | 5×10^8-1×10^9 p/sec/cm^2/sr | 8×10^8-1×10^9 p/sec/cm^2/sr |
| CCCCC/C=C\C/C=C\CCCCCCCCNC(=O)C(CCCCCCCC)N(CCCCCCCC/C=C\C/C=C\CCCCC)C(=O)CCCN(C)CCO (stereo not shown) [Compound C6] | 0.442 | 61.16 | 90.65 | −10.22 |  |  |  |
| CCCCCCCCC(CCCCCCCC)OC(=O)CCCCCC(=O)N(CCCN(C)C)C(CCCCCCCC)C(=O)NCCCCCC(=O)OCCC12CC3CC(CC(C3)C1)C2 (stereo not shown) [Compound A48] |  |  |  |  | 6×10^8-8×10^8 p/sec/cm^2/sr |  |  |
| CCCCCCCCNC(=O)C(CCCC)N(CCCN(C)C)C(=O)CCCCCCC(=O)OC(CCCCCCCC)CCCCCCCC (stereo not shown) [Compound A27] |  |  |  |  |  | 5×10^8-1×10^9 p/sec/cm^2/sr | 8×10^8-1×10^9 p/sec/cm^2/sr |
| CCCCCCCCNC(=O)C(CCCCCCCC)N(CCC1CCCN1C)C(=O)CCCCCCC(=O)OC(CCCCCCCC)CCCCCCCC (stereo not shown) [Compound A34] |  |  |  |  | 6×10^8-8×10^8 p/sec/cm^2/sr | 5×10^8-1×10^9 p/sec/cm^2/sr | 8×10^8-1×10^9 p/sec/cm^2/sr |
| CCCCC/C=C\C/C=C\CCCCCCCCNC(=O)C(CCCCCCCC)N(CCCCCCCC/C=C\C/C=C\CCCCC)C(=O)CCCN(CCO)CCO (stereo not shown) [Compound C7] | 0.23 | 225.6 | 88.48 | −5.62 |  |  |  |
| CCCCCCCCC(C(=O)NCCCCCCCCCC(=O)OC(CCCCCC)CCCCCC)N(CCCCN1CCN(CCCN(C(=O)CCCCCCCCCC(=O)OC(CCCCCC)CCCCCC)C(CCCCCCCC)C(=O)NCCCCCCCCCC(=O)OC(CCCCCC)CCCCCC)CC1)C(=O)CCCCCCCCCOC(=O)C(CCCCCC)CCCCCC (stereo not shown) [Compound D3] | 0.159 | 78.76 | 89.56 | −2.05 |  |  |  |
| CCCCCCCC(C(=O)NCCCCCCCCCC(=O)OC(CCCCCC)CCCCCC)N(CCN(C)CCO)C(=O)CCCCCCCCCC(=O)OC(CCCCCC)CCCCCC (stereo not shown) [Compound B9] | 0.143 | 92.84 | 91.00 | 0.32 |  |  |  |
| CCCCC/C=C\C/C=C\CCCCCCCC(=O)N(CCCCN1CCCC1)C(CCCCCCCCCCC)C(=O)NCCCCCCCCCCCCCC (stereo not shown) [Compound A24] | 0.192 | 95.52 | 9.33 | 7.89 |  |  |  |
| CCCCCCCCC(C(=O)NCCCCCCCCCC(=O)OC(CCCCCC)CCCCCC)N(CCN(C)CCN(C(=O)CCCCCCCCCC(=O)OC(CCCCCC)CCCCCC)C(CCCCCCCC)C(=O)NCCCCCCCCCC(=O)OC(CCCCCC)CCCCCC)C(=O)CCCCCCCCCC(=O)OC(CCCCCC)CCCCCC (stereo not shown) [Compound D6] | 0.116 | 60.77 | 92.04 | −12.28 |  |  |  |
| CCCCCCCCNC(=O)C(CCCCCCCC)N(CCCCN1CCCC1)C(=O)CCCCCCC(=O)OC(CCCCCCCC)CCCCCCCC (stereo not shown) [Compound A37] | 0.14 | 85.32 | 84.80 | −5.90 |  |  |  |
| CCCCCCCCNC(=O)C(CCCCCCCC)N(CCCN(CC)CCO)C(=O)CCCCCCC(=O)OC(CCCCCCCC)CCCCCCCC (stereo not shown) [Compound B28] | 0.25 | 59.38 | 94.63 | −0.77 |  |  |  |

— patent publication US20260078099A1, “COMPOUND, PREPARATION METHOD THEREOF, AND LIPID NANOPARTICLE AND PHARMACEUTICAL COMPOSITION” (priority 2023, published 2026)
